Our source for the binding signal values is article PMC10668032.

Some of the results follow. At the low end of the ranking the order means little.

The target of the test is SIX1 homeodomain (reference allele) (UniProt Q15475). Put plainly: universal protein binding microarray. The settings on record: Universal all-10-mer PBM (8x60K, AMADID 030236), 300 nM GST-tagged protein, Alexa Fluor 488 anti-GST; buffer, salt, pH and temperature not stated; high values mean tight binding; most listed sequences are background and not binding sites; double strand, one strand shown.
AGCTTGTC: the binding signal is -0.133 E-score.
CTACGAGA: the binding signal stood at 0.0723 E-score.
For GGATCGGA, the binding signal is 0.38 E-score.
On to AGCCAGCC, for which the binding signal was -0.204 E-score.
GCTGAAAA: the binding signal was -0.0746 E-score.
Take CTTTGGCA: the binding signal is -0.139 E-score.
As for ATCCCGCA, the binding signal amounted to 0.158 E-score.
As to AACGACAA, the binding signal was -0.14 E-score.
For the sequence GCCGAAGA, the binding signal was -0.257 E-score.
As to CGCCTTCC, the binding signal is -0.281 E-score.
Consider ATAAGAAA, for which the binding signal was -0.0103 E-score.
The value for AATACGTA was 0.237 E-score; that for CTCGTCAC was -0.0969 E-score; that for CCAAACTA was -0.041 E-score.
In the case of CTTTCCAC, the binding signal was -0.0399 E-score.
The result for GCGATCCA reads 0.345 E-score; that for CCGTGTTA, -0.00292 E-score; that for GTCGAGAA, -0.179 E-score.
The value for AGTATTTG was -0.0508 E-score; that for ATGAATAG was 0.0136 E-score; that for GTGAGAAC was 0.0921 E-score.
On to ATTCTCTG, for which the binding signal was -0.207 E-score.
In the case of GACTTGAC, the binding signal was -0.255 E-score.
On to AACGCCTA, for which the binding signal is -0.209 E-score.
As to ATCACGCA, the binding signal turned out to be 0.203 E-score.
On to AATGATTG, for which the binding signal is -0.168 E-score.
On to AACTTCGC, for which the binding signal was -0.236 E-score.
As to CCTCGCGA, the binding signal is -0.0767 E-score.
Consider GAGAACAC, for which the binding signal was determined as 0.141 E-score.
For CTTAATGA, the binding signal was -0.0702 E-score.
With CATCTCGC, the binding signal was -0.00651 E-score.
ATACTGCC: the binding signal stood at 0.313 E-score.
The value for TGTATACA was 0.319 E-score; that for CTAATGGC was -0.212 E-score; that for CCAGCGAG was -0.048 E-score.
For ACACCCGA, the binding signal came to 0.294 E-score.
As for TAATTGTA, the binding signal was -0.21 E-score.
The value for CCCAACAG was -0.0273 E-score; that for CCCGTAGA was -0.00396 E-score.
AGCGTAAC: the binding signal was -0.319 E-score.
With TCGCCACA, the binding signal is -0.135 E-score.
The result for CCCAATAA reads -0.122 E-score.
Consider GCCGCGAC, for which the binding signal is -0.0148 E-score.
As for ACAACACA, the binding signal is -0.216 E-score.
In the case of CCCTTTGC, the binding signal amounted to 0.00697 E-score.
As for CGGCTTTC, the binding signal is -0.27 E-score.
With AAGGGAGG, the binding signal was -0.158 E-score.
On to ACGTGCTC, for which the binding signal was -0.015 E-score.
With CGTATCGA, the binding signal is 0.398 E-score.
As for GAGCGGGA, the binding signal is -0.0493 E-score.
As to AGGAAAGA, the binding signal was -0.212 E-score.
For ATATTCCG, the binding signal came to 0.183 E-score.
As for GGGGGGGA, the binding signal is -0.00511 E-score.
As to AGCAAAAA, the binding signal was -0.287 E-score.
For CGGCGGAA, the binding signal is -0.148 E-score.
For ATTAGGAA, the binding signal is -0.0226 E-score.
Regarding CAAAGCTG, the binding signal is -0.1 E-score.
The result for ATGCCTGC reads 0.0586 E-score.
As for GAAAAAGC, the binding signal is -0.213 E-score.
The result for ACGCGAGC reads -0.169 E-score.
On to ACCGCCAG, for which the binding signal is -0.0393 E-score.
The result for CTTCAAAC reads -0.207 E-score.
The result for ATCAACTC reads 0.23 E-score; that for ACGCGAAG, -0.246 E-score; that for AATGGTGC, -0.00096 E-score.
With AATGGATC, the binding signal amounted to 0.35 E-score.
Take CGCCTATA: the binding signal amounted to 0.178 E-score.
The value for ATAATACC was 0.421 E-score.
With ACTACCCA, the binding signal was -0.0174 E-score.
The result for CTCCCCGC reads 0.15 E-score; that for TCGGCTAA, -0.06 E-score; that for ATCGGCAT, 0.205 E-score.
As for AGGAGGGG, the binding signal came out at 0.0173 E-score.
For CCTGCCAC, the binding signal is -0.136 E-score.
Consider CATAATAC, for which the binding signal is 0.34 E-score.
The value for CTGCGTTC was -0.182 E-score.
For AGCACGCC, the binding signal was -0.193 E-score.
For the sequence CGTCAACG, the binding signal was -0.173 E-score.
Consider ACCCCACA, for which the binding signal is 0.15 E-score.
CCCTCAGA: the binding signal is -0.0118 E-score.
Consider CCAGTCCG, for which the binding signal was -0.146 E-score.
The value for ACTGCAAT was -0.146 E-score; that for CAACGCGG was -0.226 E-score; that for GCGGTGAC was -0.17 E-score.
Regarding TAAATACA, the binding signal was determined as 0.0859 E-score.
For the sequence CCTCCGGC, the binding signal was 0.123 E-score.
As to GAGTTGCC, the binding signal was -0.161 E-score.
For AGCAGACA, the binding signal is -0.00281 E-score.
The result for AAGCCGGT reads -0.142 E-score.
As for CTTACGCA, the binding signal is -0.25 E-score.
With CCGCTAAG, the binding signal is 0.0528 E-score.
Regarding CAAGAATA, the binding signal was 0.104 E-score.
CACCTTCG: the binding signal amounted to 0.0539 E-score.
As for GCAGTTGA, the binding signal was 0.0443 E-score.
For ACGGTGGG, the binding signal is -0.0615 E-score.
For ATGCGGCC, the binding signal was -0.091 E-score.
Turning to AATAGTCC, the binding signal is -0.0812 E-score.
Consider CTGTATCA, for which the binding signal is 0.418 E-score.
CTACAGGA: the binding signal was -0.0807 E-score.
For the sequence CCTAATGA, the binding signal is 0.0182 E-score.
In the case of AATGTGTA, the binding signal was -0.076 E-score.
As for GGAGTTAA, the binding signal is -0.102 E-score.
As for AAATTGCC, the binding signal is -0.0329 E-score.
ATAGACTA: the binding signal came to 0.0286 E-score.
On to CTCCCAGC, for which the binding signal is -0.12 E-score.
Consider CCCCGTTC, for which the binding signal worked out at 0.0485 E-score.
For the sequence ACGACCAA, the binding signal is -0.0689 E-score.
AATTTTCC: the binding signal was -0.0716 E-score.
With CGAATTAA, the binding signal was -0.128 E-score.
For the sequence CTCGCACC, the binding signal is -0.0623 E-score.
The result for AGATGGGA reads 0.131 E-score.
For the sequence ACGTGGCT, the binding signal was -0.209 E-score.
Consider CCCTTCAG, for which the binding signal is -0.0951 E-score.
For the sequence CAGATGCA, the binding signal is -0.236 E-score.
Regarding CAAAAATA, the binding signal was 0.0414 E-score.
With ATAGCCCA, the binding signal worked out at 0.138 E-score.
For GGTAATGA, the binding signal was -0.0417 E-score.
Take GGAAGAGA: the binding signal was -0.00443 E-score.
The result for GAAACCTC reads 0.0947 E-score; that for GCAAATGC, -0.33 E-score; that for ACTAAGGG, 0.0359 E-score.
The result for GTATTTGA reads 0.117 E-score; that for CCATTAAC, -0.17 E-score; that for AGTTCTTG, -0.139 E-score.
The result for ATGCGATC reads 0.309 E-score; that for AGTGAAAC, 0.0562 E-score.
Turning to TCAAGCGA, the binding signal is -0.0338 E-score.
The value for CGTGGTCA was -0.188 E-score; that for ACCCAGTC was -0.131 E-score.
Regarding ACCGGCTA, the binding signal was found to be 0.099 E-score.
Take CGAAGCTA: the binding signal was -0.0395 E-score.
In the case of TATATATA, the binding signal is 0.344 E-score.
For TGTTGTAA, the binding signal is -0.197 E-score.
For the sequence CAAGAGAG, the binding signal was -0.145 E-score.
For the sequence CGTTACTA, the binding signal is -0.156 E-score.
The value for GCTTTGTA was -0.126 E-score; that for AAGCCAAC was -0.0595 E-score; that for CATGACTA was -0.00197 E-score.
In the case of ATCTTTGA, the binding signal was found to be 0.0646 E-score.
Regarding CGTGTTCA, the binding signal was -0.0359 E-score.
Consider AGGAACTG, for which the binding signal was -0.371 E-score.
Regarding AGGTTAAA, the binding signal is -0.0905 E-score.
Consider AGTCGGTG, for which the binding signal was -0.0306 E-score.
Regarding CTCATTGC, the binding signal is -0.147 E-score.
For AACTGACA, the binding signal is -0.081 E-score.
The result for GGCATGGA reads -0.0387 E-score.
For the sequence GTAGGGGA, the binding signal is 0.0833 E-score.
Turning to CTAACCCC, the binding signal was 0.207 E-score.
For the sequence GCGAGACA, the binding signal was -0.0353 E-score.
On to TACCTGGA, for which the binding signal turned out to be 0.162 E-score.
For AGAGAACT, the binding signal was -0.0491 E-score.
On to ATCTAGGG, for which the binding signal was found to be 0.187 E-score.
Take CTCCTATA: the binding signal is 0.0205 E-score.
As to AAGCATCT, the binding signal is -0.124 E-score.
ATGGGAGG: the binding signal is 0.0284 E-score.
As to ACAAGAGA, the binding signal worked out at 0.0171 E-score.
Regarding ACACCTGG, the binding signal is 0.172 E-score.
For AATTATTC, the binding signal is -0.242 E-score.
Turning to TAGACCGA, the binding signal was found to be 0.0385 E-score.
With CAAGCATA, the binding signal came out at 0.00112 E-score.
The value for CAGCCGGA was 0.168 E-score; that for CCATCCAG was -0.00847 E-score; that for TATGAAAA was 0.1 E-score.
On to CACCATAG, for which the binding signal stood at 0.0397 E-score.
In the case of GAAACACA, the binding signal is -0.113 E-score.
With GATACAGA, the binding signal was found to be 0.268 E-score.
Take ACATCGCC: the binding signal is -0.299 E-score.
On to CATTAATG, for which the binding signal is -0.0256 E-score.
As for CGCACCCC, the binding signal is -0.0445 E-score.
Take CAAAGGCC: the binding signal was -0.281 E-score.
The result for AGGCGCCC reads -0.23 E-score; that for AACAGCGC, -0.109 E-score.
